Measurements as given in PubChem BioAssay (Tox21).
Inconclusive means that the source gave no clear call. Such entries were picked first, then a sample of the others. For some assays here: Potencies of inconclusive entries are doubtful fits and often do not repeat. Calls of active or inactive are those of the source. Unless noted, the call rests on the fitted dose curve; in most records, active means well fitted curve in the direction sought with a large enough effect in the repeat runs; inconclusive means weak or mixed curves; inactive means no such curve, though single readings can be large; an effect the other way counts as inactive or inconclusive.

Legend:
[1] = qHTS assay for small molecule agonists of the p53 signaling pathway (AID 651631; calls by dose curve; further: potency means the concentration at half of the fitted maximal effect; nearly all actives have a fitted effect of over 15% in size); conditions: HCT-116 p53RE-bla reporter, beta-lactamase FRET ratio, 16 h; activation: at 73.3 µM (top of the series) unless noted
Outline: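 HCT-116 p53RE-bla reporter line, 16 h compound treatment at 37 °C, then fluorescence after 2 h with B/G FRET substrate.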

[2] = qHTS assay for small molecules that induce genotoxicity in human embryonic kidney cells expressing luciferase-tagged ATAD5 - cell viability (AID 651634; calls by dose curve; further: potency means the concentration at half of the fitted maximal effect; nearly all actives have a fitted effect of over 25% in size)
Outline: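 Seeding of 2,000 HEK293T ATAD5-luciferase cells per well preceded pin-tool compound transfer. Plates sat 15.5 hr at 37C under 5% CO2, then fluorescence was read after 30 min with CellTiter-Fluor.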

[3] = qHTS assay for small molecule disruptors of the mitochondrial membrane potential (AID 720635); conditions: HepG2 mitochondrial membrane potential, Mito-MPS dye ratio; ratio activity, negative = MMP loss: at 83.2 µM (top of the series) unless noted; further: potency means the concentration at half of the fitted maximal effect
Outline: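 Mitochondrial membrane potential tracked with Mito-MPS dye, red aggregates (ex 540/em 590 nm) against green monomers (ex 490/em 535 nm). Compound treatment 1 hr at 37C, dye 30 min in HepG2.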

[4] = molecular target: Glucocorticoid receptor (Homo sapiens) (UniProt P04150); experiment: qHTS assay to identify small molecule agonists of the glucocorticoid receptor (GR) signaling pathway (AID 720691; active means well fitted activation curve with a large enough effect in the signal ratio in the repeat runs, not every such curve was filed as active; inconclusive means weak or mixed curves, or effect the other way; inactive means no such curve, though single readings can be large or run the other way; the % refers to the signal ratio; further: potency means the concentration at half of the fitted maximal effect); conditions: GR-bla HeLa, beta-lactamase reporter ratio, 18 h; activation: at 62.4 µM (top of the series) unless noted
Outline: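 Reporter read-out: fluorescence intensity following 2 h room-temperature LiveBLAzer B/G FRET substrate loading. Prior step: GR-bla HeLa cells held 4 h, then treated 18 h at 37 C.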

[5] = molecular target: Glucocorticoid receptor (Homo sapiens) (UniProt P04150); experiment: qHTS assay to identify small molecule antagonists of the glucocorticoid receptor (GR) signaling pathway (AID 720692; active means well fitted inhibition curve with a large enough effect in the signal ratio in the repeat runs, not every such curve was filed as active; inconclusive means weak or mixed curves, or effect the other way; inactive means no such curve, though single readings can be large or run the other way; the % refers to the signal ratio; further: potency means the concentration at half of the fitted maximal effect); conditions: GR-bla HeLa, beta-lactamase FRET ratio, dexamethasone-stimulated, 18 h; activity change, negative = inhibition: at 58.5 µM (top of the series) unless noted
Outline: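 Dexamethasone (5 nM final) stimulated a stably integrated GRE-beta-lactamase reporter in HeLa cells during 18 h co-incubation with compounds; signal was quantified as fluorescence intensity of B/G FRET substrate after 2 h.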

[6] = qHTS assay to identify small molecule antagonists of the glucocorticoid receptor (GR) signaling pathway - cell viability counter screen (AID 720693); conditions: GR-bla HeLa viability, CellTiter-Glo luminescence, 18 h, with 5 nM dexamethasone present; viability change, negative = cytotoxic: at 58.5 µM (top of the series) unless noted; further: potency means the concentration at half of the fitted maximal effect; nearly all actives have a fitted effect of over 55% in size
[7] = qHTS assay for identifying genotoxic compounds that show differential cytotoxicity against isogenic chicken DT40 cell lines with known DNA damage response pathways - Rad54/Ku70 mutant cell line (AID 743015); conditions: DT40 Rad54/Ku70 mutant viability, CellTiter-Glo, 40 h; activity change, negative = cytotoxicity: at 66.8 µM (top of the series); further: potency means the concentration at half of the fitted maximal effect; nearly all actives have a fitted effect of over 60% in size
[8] = molecular target: Androgen receptor (Homo sapiens) (UniProt P10275); experiment: qHTS assay to identify small molecule antagonists of the androgen receptor (AR) signaling pathway (AID 743035; active means well fitted inhibition curve with a large enough effect in the signal ratio in the repeat runs, not every such curve was filed as active; inconclusive means weak or mixed curves, or effect the other way; inactive means no such curve, though single readings can be large or run the other way; the % refers to the signal ratio; further: potency means the concentration at half of the fitted maximal effect); conditions: HEK293 AR-UAS-bla, R1881-stimulated, beta-lactamase FRET, 16 h; activity change, negative = inhibition: at 58.5 µM (top of the series) unless noted
Outline: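 Using qHTS, AR-UAS-bla GripTite HEK293 cells received compound, then R1881, and were cultured 16 h at 37C/5% CO2 before a 2 h room-temperature LiveBLAzer B/G FRET substrate step and fluorescence measurement.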

[9] = molecular target: Androgen receptor (Homo sapiens) (UniProt P10275); experiment: qHTS assay to identify small molecule agonists of the androgen receptor (AR) signaling pathway (AID 743036; active means well fitted activation curve with a large enough effect in the signal ratio in the repeat runs, with a control signal flat, not every such curve was filed as active; inconclusive means weak or mixed curves, or effect the other way; inactive means no such curve, though single readings can be large or run the other way; the % refers to the signal ratio; further: potency means the concentration at half of the fitted maximal effect); conditions: HEK293 AR-UAS-bla GripTite, beta-lactamase FRET ratio, 16 h; activation: at 62.4 µM (top of the series) unless noted
Outline: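 Reporter line: GeneBLAzer AR-UAS-bla-GripTite (HEK293). Steps: plate cells, 4 h rest, add compounds, 16 h at 37C, add LiveBLAzer B/G substrate, 2 h at RT, read fluorescence.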

[10] = qHTS assay to identify small molecule antagonists of the androgen receptor (AR) signaling pathway using the MDA cell line - cell viability counter screen (AID 743041; further: potency means the concentration at half of the fitted maximal effect; nearly all actives have a fitted effect of over 45% in size); conditions: MDA-kb2 viability, CellTiter-Fluor, 16 h, cells co-treated with R1881 androgen agonist; viability change, negative = cytotoxic: at 70.3 µM (top of the series)
Outline: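 Cells were plated at 3,000 per well and left 5 h. Compounds in DMSO were then pinned in, followed by R1881. After 16 h at 37C, CellTiter-Fluor fluorescence gave viability.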

[11] = molecular target: Androgen receptor (Homo sapiens) (UniProt P10275); experiment: qHTS assay to identify small molecule antagonists of the androgen receptor (AR) signaling pathway using the MDA cell line (AID 743042; further: potency means the concentration at half of the fitted maximal effect; nearly all actives have a fitted effect of over 55% in size)
Outline: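 Antagonist mode: compounds plus R1881 agonist added to MDA-kb2 AR-luc cells, incubated 16 h at 37C. Luciferase reporter luminescence quantified, with multiplexed CellTiter-Fluor readout for cell viability.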

[12] = system: thyroid hormone receptor (rat, GH3 cells); experiment: qHTS assay to identify small molecule agonists of the thyroid receptor (TR) signaling pathway (AID 743066; calls by dose curve; further: on the % scale 0 is the no-effect control and ±100 the full control effect); conditions: GH3.TRE-Luc cells, TR agonist luciferase, 24 h; activation: at 83.9 µM (top of the series) unless noted
[13] = molecular target: Estrogen receptor (Homo sapiens) (UniProt P03372); experiment: qHTS assay to identify small molecule antagonists of the estrogen receptor alpha (ER-alpha) signaling pathway (AID 743069; active means well fitted curve in the direction sought with a large enough effect in the signal ratio in the repeat runs, not every such curve was filed as active; inconclusive means weak or mixed curves, or effect the other way; inactive means no such curve, though single readings can be large or run the other way; the % refers to the signal ratio; further: potency means the concentration at half of the fitted maximal effect); conditions: HEK293 ER-alpha-UAS-bla, beta-lactamase ratio, antagonist mode; activity, negative = inhibition: at 69.4 µM (top of the series) unless noted
Outline: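 ER-alpha-UAS-bla GripTite HEK293 line; 2% charcoal-stripped FBS overnight; plated, 4 hr 37C/5% CO2; cpd in DMSO + 17beta-estradiol, 18 hr 37C; LiveBLAzer B/G FRET substrate 2 hr RT; fluorescence intensity.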

[14] = qHTS assay to identify small molecule antagonists of the estrogen receptor alpha (ER-alpha) signaling pathway - cell viability counter screen (AID 743074; calls by dose curve;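 further: HEK293 cells carrying ER-alpha-UAS-bla reporter stimulated with 17beta-estradiol; potency means the concentration at half of the fitted maximal effect; nearly all actives have a fitted effect of over 45% in size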)
[15] = molecular target: Estrogen receptor (Homo sapiens) (UniProt P03372); experiment: qHTS assay to identify small molecule agonists of the estrogen receptor alpha (ER-alpha) signaling pathway (AID 743075; calls by dose curve); conditions: HEK293 ER-alpha-UAS-bla, beta-lactamase FRET ratio, 18 h; activation: at 70.1 µM (top of the series) unless noted
[16] = molecular target: Estrogen receptor (Homo sapiens) (UniProt P03372); experiment: qHTS assay to identify small molecule agonists of the estrogen receptor alpha (ER-alpha) signaling pathway using the BG1 cell line (AID 743079); conditions: BG1Luc4E2 cells, ERE-luciferase agonist, 22 h; activation: at 70.3 µM (top of the series) unless noted; further: potency means the concentration at half of the fitted maximal effect; nearly all actives have a fitted effect of over 20% in size
[17] = qHTS assay to identify small molecule antagonists of the estrogen receptor alpha (ER-alpha) signaling pathway using the BG1 cell line (AID 743080; calls by dose curve;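 further: BG1 cells stimulated with 17beta-estradiol alongside compound; potency means the concentration at half of the fitted maximal effect; nearly all actives have a fitted effect of over 25% in size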); conditions: BG1Luc4E2 ERE-luciferase antagonist mode, luminescence; activity change, negative = inhibition: at 70.3 µM (top of the series) unless noted
Outline: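 Quantitative HTS on the Tox21 10K library: BG1 cells with endogenous ER-alpha and ERE-luciferase reporter, 17beta-estradiol stimulation, 21.5 h compound exposure, luminescence endpoint with parallel fluorescence cytotoxicity counter-read.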

[18] = qHTS assay to identify small molecule antagonists of the estrogen receptor alpha (ER-alpha) signaling pathway using the BG1 cell line - cell viability counter screen (AID 743081); conditions: BG1Luc4E2 viability, CellTiter-Fluor, 22 h; activity change, negative = cytotoxicity: at 70.3 µM (top of the series);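 further: compound given together with 17beta-estradiol as the ER stimulus; potency means the concentration at half of the fitted maximal effect; nearly all actives have a fitted effect of over 45% in size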
[19] = qHTS assay to identify aromatase inhibitors - cell viability counter screen (AID 743084); conditions: MCF-7 aro ERE viability, CellTiter-Fluor, 24 h; activity change, negative = cytotoxicity: at 70.3 µM (top of the series);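 further: cells stimulated with testosterone during compound exposure; potency means the concentration at half of the fitted maximal effect; nearly all actives have a fitted effect of over 55% in size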
[20] = molecular target: Peroxisome proliferator-activated receptor gamma (Homo sapiens) (UniProt P37231); experiment: qHTS assay to identify small molecule agonists of the peroxisome proliferator-activated receptor gamma (PPARg) signaling pathway (AID 743094; active means well fitted activation curve with a large enough effect in the signal ratio in the repeat runs, not every such curve was filed as active; inconclusive means weak or mixed curves, or effect the other way; inactive means no such curve, though single readings can be large or run the other way; the % refers to the signal ratio; further: potency means the concentration at half of the fitted maximal effect); conditions: HEK293H PPARg-UAS-bla, beta-lactamase FRET ratio, 17 h; activation: at 57 µM (top of the series) unless noted
Outline: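 Following 5 h plating at 37C, PPARg-bla HEK293H cells receive compound or DMSO for 17 h; fluorescence intensity is recorded after LiveBLAzer B/G loading for 1 h at room temperature.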
Tags describe the fitted curve by direction and shape or compound fluorescence and quenching.

Chain of UniProt P03372 (P03372 whole entry, looked up): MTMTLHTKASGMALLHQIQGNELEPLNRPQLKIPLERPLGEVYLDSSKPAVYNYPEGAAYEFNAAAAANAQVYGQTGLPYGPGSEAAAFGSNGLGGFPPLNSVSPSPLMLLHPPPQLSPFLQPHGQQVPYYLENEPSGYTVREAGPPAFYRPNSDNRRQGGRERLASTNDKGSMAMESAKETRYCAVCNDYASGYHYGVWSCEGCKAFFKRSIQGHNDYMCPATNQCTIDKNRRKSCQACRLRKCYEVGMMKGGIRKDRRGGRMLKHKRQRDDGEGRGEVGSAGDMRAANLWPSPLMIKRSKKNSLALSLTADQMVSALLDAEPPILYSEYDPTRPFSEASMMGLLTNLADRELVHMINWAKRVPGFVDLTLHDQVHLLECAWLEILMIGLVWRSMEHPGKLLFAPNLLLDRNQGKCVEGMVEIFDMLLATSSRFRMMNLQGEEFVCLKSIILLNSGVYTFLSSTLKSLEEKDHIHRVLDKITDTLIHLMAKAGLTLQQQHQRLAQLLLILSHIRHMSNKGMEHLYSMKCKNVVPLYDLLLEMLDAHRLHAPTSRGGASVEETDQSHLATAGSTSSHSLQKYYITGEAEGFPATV
Chain of UniProt P10275 (P10275 whole entry, looked up): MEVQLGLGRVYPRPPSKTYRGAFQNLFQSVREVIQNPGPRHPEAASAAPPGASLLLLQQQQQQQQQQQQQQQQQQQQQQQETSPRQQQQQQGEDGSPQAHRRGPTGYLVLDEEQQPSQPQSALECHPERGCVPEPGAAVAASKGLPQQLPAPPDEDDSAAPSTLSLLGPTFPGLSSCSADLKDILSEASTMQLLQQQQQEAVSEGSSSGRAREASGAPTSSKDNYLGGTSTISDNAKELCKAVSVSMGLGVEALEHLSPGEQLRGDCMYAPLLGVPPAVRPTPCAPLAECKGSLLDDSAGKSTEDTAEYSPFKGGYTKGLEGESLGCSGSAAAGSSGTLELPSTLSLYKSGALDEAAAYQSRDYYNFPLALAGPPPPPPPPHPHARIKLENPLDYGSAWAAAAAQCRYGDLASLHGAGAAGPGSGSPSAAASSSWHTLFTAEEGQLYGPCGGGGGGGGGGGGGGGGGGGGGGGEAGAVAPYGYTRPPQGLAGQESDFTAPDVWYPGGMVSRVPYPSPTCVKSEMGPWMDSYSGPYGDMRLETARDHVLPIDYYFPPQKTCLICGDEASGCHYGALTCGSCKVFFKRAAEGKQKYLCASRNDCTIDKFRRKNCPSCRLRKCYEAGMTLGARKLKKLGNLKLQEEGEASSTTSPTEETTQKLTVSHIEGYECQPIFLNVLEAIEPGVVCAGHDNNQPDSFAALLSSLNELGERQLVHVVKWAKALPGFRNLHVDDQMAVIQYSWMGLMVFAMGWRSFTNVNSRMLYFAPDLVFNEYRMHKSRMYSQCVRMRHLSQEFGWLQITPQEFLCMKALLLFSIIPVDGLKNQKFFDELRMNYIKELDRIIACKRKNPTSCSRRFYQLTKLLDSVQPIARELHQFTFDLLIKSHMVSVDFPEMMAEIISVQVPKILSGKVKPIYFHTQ
Chain of UniProt P04150 (P04150 whole entry, looked up): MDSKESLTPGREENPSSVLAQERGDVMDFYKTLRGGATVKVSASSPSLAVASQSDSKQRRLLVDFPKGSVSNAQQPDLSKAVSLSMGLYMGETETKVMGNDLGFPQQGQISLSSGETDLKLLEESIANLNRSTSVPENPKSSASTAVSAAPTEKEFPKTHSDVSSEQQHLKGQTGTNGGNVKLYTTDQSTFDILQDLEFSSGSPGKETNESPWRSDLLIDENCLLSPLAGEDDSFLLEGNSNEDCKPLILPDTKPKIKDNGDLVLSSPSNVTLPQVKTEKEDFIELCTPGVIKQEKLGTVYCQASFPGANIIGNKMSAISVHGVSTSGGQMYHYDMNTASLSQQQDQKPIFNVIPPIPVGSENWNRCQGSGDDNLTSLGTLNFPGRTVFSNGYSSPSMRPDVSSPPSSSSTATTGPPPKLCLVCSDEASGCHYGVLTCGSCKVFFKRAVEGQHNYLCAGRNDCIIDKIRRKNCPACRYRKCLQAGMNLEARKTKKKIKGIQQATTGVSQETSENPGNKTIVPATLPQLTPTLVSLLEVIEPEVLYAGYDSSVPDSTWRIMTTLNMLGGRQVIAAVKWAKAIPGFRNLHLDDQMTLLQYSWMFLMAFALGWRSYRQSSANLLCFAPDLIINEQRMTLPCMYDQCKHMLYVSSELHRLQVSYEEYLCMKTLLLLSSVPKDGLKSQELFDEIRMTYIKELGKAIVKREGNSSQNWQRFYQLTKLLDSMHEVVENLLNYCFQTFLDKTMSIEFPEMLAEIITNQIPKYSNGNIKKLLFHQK
Chain of UniProt P37231 (P37231 whole entry, looked up): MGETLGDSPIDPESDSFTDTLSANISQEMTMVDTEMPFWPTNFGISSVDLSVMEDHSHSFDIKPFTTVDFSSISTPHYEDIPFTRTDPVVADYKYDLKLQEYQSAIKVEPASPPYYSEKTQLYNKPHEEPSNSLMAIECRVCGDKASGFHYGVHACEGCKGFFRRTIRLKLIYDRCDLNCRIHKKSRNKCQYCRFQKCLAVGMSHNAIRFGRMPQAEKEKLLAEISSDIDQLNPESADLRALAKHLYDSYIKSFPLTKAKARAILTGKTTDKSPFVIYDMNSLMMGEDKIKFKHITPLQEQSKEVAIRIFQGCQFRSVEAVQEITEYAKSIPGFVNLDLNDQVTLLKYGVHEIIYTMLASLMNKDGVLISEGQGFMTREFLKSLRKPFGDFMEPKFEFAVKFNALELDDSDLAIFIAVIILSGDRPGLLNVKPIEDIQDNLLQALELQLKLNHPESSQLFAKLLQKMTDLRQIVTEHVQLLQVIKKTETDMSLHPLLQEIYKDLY

CCCCCc1cc(O)c2c(c1)OC(C)(C)c1ccc(C)cc1-2
active: Potency [2] 23.7 µM | Potency [3] 1.68 µM | Potency [6] 13.4 µM | Potency [7] 11.9 µM | Potency [8] 16.9 µM | Potency [14] 23.9 µM | Potency [17] 29.8 µM
inconclusive: Potency [1] 13.3 µM [cytotoxic, full curve] | Potency [4] 10.7 µM [cytotoxic] | Potency [5] 13.4 µM [cytotoxic] | Potency [9] 23.9 µM [falling, single point] | Potency [10] 33.5 µM [cytotoxic, single point] | Potency [11] 33.5 µM [inhibitor, single point] | activation [12] -10.1% [phenotype inactive] | Potency [13] 26.8 µM [cytotoxic, single point] | Potency [15] 26.8 µM [single point] | Potency [16] 29.8 µM [inhibitor, partial curve] | Potency [18] 33.5 µM [cytotoxic, single point] | Potency [19] 23.7 µM [cytotoxic, partial curve] | Potency [20] 26.8 µM
